Measured values: ChEMBL document CHEMBL4888484, “Replenishing the malaria drug discovery pipeline: Screening and hit evaluation of the MMV Hit Generation Library 1 (HGL1) against asexual blood stage Plasmodium falciparum ,using a nano luciferase reporter read-out” (2022)
Among all 150,000 compounds or so, about 540 (0.36%) showed an effect of 50% or more. Some of the results follow.

The compounds below were run on Plasmodium falciparum (assay: Primary screen in NF54 nanoGlo assay, in single point, at 2uM, 72h; a lower Z score goes with more inhibition). Details: timepoint 72 hour.
Assay type: functional, Erythrocyte
O=C(N[C@H]1CCOC[C@H]1C1CCOCC1)c1ccc(F)c(O)c1 was tested, and the “% Inhibition” value was -10% and the Z score was 1.48. For COc1cc(NC(=O)Cn2cc(OC)c(=O)cc2CO)cc(OC)c1OC, the “% Inhibition” value was -6% and the Z score was 0.77. C#CCNC(=O)N1CCCCC[C@@H]1CC was tested, and the “% Inhibition” value was -5% and the Z score was 0.67. O=C(NC1CCCCCC1CO)c1c[nH]nc1-c1ccsc1 (centres undefined) was tested, and the “% Inhibition” value was -11% and the Z score was 1.08. In the case of COc1ccc(OC)c(S(=O)(=O)N2CC[C@H](S(=O)(=O)c3ccc(Cl)cc3)C2)c1, the “% Inhibition” value is reported as 7% and the Z score is reported as -1.25. In the case of CCc1cc(CNC(=O)N(Cc2ccccc2F)C2CCC2)[nH]n1, the “% Inhibition” value is reported as 1% and the Z score is reported as -0.1. With c1cc(OCc2ccc3c(c2)OCO3)ccc1CNC[C@H]1CCCO1 the “% Inhibition” value was 14% and the Z score was -1.84. For CN(C)S(=O)(=O)N(CCNC(=O)Nc1ccccc1C(F)(F)F)C1CCOCC1, the “% Inhibition” value was 0% and the Z score was -0.05. In the case of O=C(Nc1ccc(O)cc1)C1CCN(C(=O)C23CCCN2CCC3)CC1, the “% Inhibition” value is reported as -8% and the Z score is reported as 1.46. With Cc1ccc(C)c(-n2cnc(=O)n2CC(=O)c2cc(C(N)=O)co2)c1 the “% Inhibition” value was -5% and the Z score was 0.98. For CNS(=O)(=O)c1ccc(OC)cc1, the “% Inhibition” value was -10% and the Z score was 0.81. In the case of Cc1cc(C#N)nc(N2CC[C@H](N(C)C)C2)n1, the “% Inhibition” value is reported as 1% and the Z score is reported as -0.11. In the case of c1cc(CNC2C[C@@H]3CCCC[C@H]23)c(OCC2CCOC2)cn1 (some centres undefined), the “% Inhibition” value is reported as 5% and the Z score is reported as -0.48. With c1ccc2c(c1)CCN(c1ncnc3sccc13)C2 the “% Inhibition” value was -7% and the Z score was 1.09. With Cc1nc(CN(C)C(=O)NC2CCCCC2)no1 the “% Inhibition” value was -3% and the Z score was 0.4. With COCc1nc([C@H]2CCOC2)cc(N2CCC(C(=O)N3CCCC3)CC2)n1 the “% Inhibition” value was -2% and the Z score was 0.26. With CN(Cc1ccc(F)cn1)c1ccn(C)n1 the “% Inhibition” value was 37% and the Z score was -5.3. In the case of Cc1nc([C@H]2CCCN2S(=O)(=O)c2cccc3c2OCC3)cs1, the “% Inhibition” value is reported as -6% and the Z score is reported as 0.81. COc1ncc(C(=O)N2CC[C@](C)(O)[C@H](O)C2)nc1OC was tested, and the “% Inhibition” value was 4% and the Z score was -0.68. With COc1ccc([C@H]2OCC[C@@H]2NC(=O)c2cc(C)nc3c2cnn3C)cn1 the “% Inhibition” value was -12% and the Z score was 1.04. In the case of CC(C)(CC(=O)O)CC(=O)N1CCC[C@H](c2ccc(F)cc2)CC1, the “% Inhibition” value is reported as 0% and the Z score is reported as 0.04. In the case of CC(C)N1CCC(N2C(=O)[C@@H]3CC[C@@H](c4ccccc4)N3C2=O)CC1, the “% Inhibition” value is reported as 4% and the Z score is reported as -0.66. CC(=Cc1ccccc1)CN1CCC2CCC(C1)S2(=O)=O (centres undefined) was tested, and the “% Inhibition” value was -3% and the Z score was 0.4. Cc1cccc(Cl)c1-c1ccc(C(=O)N(C)CCC2(O)CCCC2)cc1 was tested, and the “% Inhibition” value was -6% and the Z score was 0.83. For COc1cccc(Cn2nc(C)c(NC(=O)c3cc(C)nc4c3cnn4C)c2C)c1, the “% Inhibition” value was 32% and the Z score was -3.61. NCCOc1cccc(CC(=O)N2C[C@H]3CCC[C@@H](C3)C2)c1 was tested, and the “% Inhibition” value was -9% and the Z score was 0.9. For C[C@@H](CO)NC(=O)Cn1c(-c2ccccc2)nn(-c2ccccc2Cl)c1=O, the “% Inhibition” value was -12% and the Z score was 1.43. In the case of NC(=O)Cc1nc(-c2ccc(O)c(F)c2)n(CCO)n1, the “% Inhibition” value is reported as -7% and the Z score is reported as 1.35. For O=c1c2ccccc2nc(-c2ccc(Cl)cc2Cl)n1-c1ccc2ccccc2c1, the “% Inhibition” value was -8% and the Z score was 0.91. In the case of C[C@H](Nc1ncnc2c1CCC2)c1cnccn1, the “% Inhibition” value is reported as -11% and the Z score is reported as 1.7. Cn1c(CN(Cc2ccco2)C[C@H]2CCCO2)cc(=O)n(C)c1=O was tested, and the “% Inhibition” value was -8% and the Z score was 1.51. O=C(NC[C@H]1CCCS1(=O)=O)Nc1nccs1 was tested, and the “% Inhibition” value was -14% and the Z score was 2.1. Nc1nc(C(F)(F)C(F)(F)C(F)(F)F)n[nH]1 was tested, and the “% Inhibition” value was -1% and the Z score was 0.1. O=C(c1cn2ccnc2s1)N1CCCC12CCCCC2 was tested, and the “% Inhibition” value was 4% and the Z score was -0.42. Nc1nc2ncc(Br)cc2o1 was tested, and the “% Inhibition” value was -2% and the Z score was 0.33. CCc1ccc(S(=O)(=O)N[C@H]2CC(=O)N(C)C2=O)s1 was tested, and the “% Inhibition” value was -6% and the Z score was 0.67. CCc1nc(-c2c(C)cc(C)nc2NC(=O)c2ccc(C)c(F)c2)no1 was tested, and the “% Inhibition” value was -2% and the Z score was 0.31. With CCOc1cccc(NC(=O)C(C)(C)C)c1 the “% Inhibition” value was -10% and the Z score was 1.72. For COCCN1CCN(C(=O)NCc2cccs2)[C@H]2CS(=O)(=O)C[C@H]21, the “% Inhibition” value was -4% and the Z score was 0.79. In the case of N#Cc1cc(C(=O)N[C@H]2CCCOCC2)ccn1, the “% Inhibition” value is reported as 36% and the Z score is reported as -5.27. For CCN(CC(=O)N1CCC(Cn2nc(C)cc2C)CC1)C1CC1, the “% Inhibition” value was -16% and the Z score was 2.46. In the case of CCCc1ccc(S(=O)(=O)N2CCN([C@H](C(=O)O)C3CC3)CC2)cc1, the “% Inhibition” value is reported as 2% and the Z score is reported as -0.52. For Cc1ccc(CN[C@H]2CCCc3nc(-c4cccnc4)ncc32)o1, the “% Inhibition” value was -16% and the Z score was 1.45. In the case of CN(C)[C@@H]1C[C@@H](C(=O)O)N(C(=O)CC(c2ccccc2)c2ccccc2)C1, the “% Inhibition” value is reported as -2% and the Z score is reported as 0.17. For COCc1nc2c(s1)CN(C(=O)c1ccccc1C)CC2, the “% Inhibition” value was 1% and the Z score was -0.16. Cc1ccccc1N(CC1CC1)C(=O)Nc1cccnc1 was tested, and the “% Inhibition” value was -6% and the Z score was 0.56. COc1cccc2cc(C(=O)N3CCN(C/C=C/c4ccccc4)CC3)oc12 was tested, and the “% Inhibition” value was 26% and the Z score was -2.96. For Cc1ccc(S(=O)(=O)N2CCCCC2C)cc1C(=O)N1CC2C(C1)C2(C)C (centres undefined), the “% Inhibition” value was -35% and the Z score was 4.11. With CCS(=O)(=O)N1CC(=O)N(c2ccc(F)cc2)[C@](C)(C(=O)NCc2ccc(F)cc2)C1 the “% Inhibition” value was -3% and the Z score was 0.33. For CCCCc1nc(CN2CCN(c3ccc(O)cc3)CC2)no1, the “% Inhibition” value was -5% and the Z score was 0.63. In the case of CCc1cnc(NCCCn2ccnc2CC)nc1, the “% Inhibition” value is reported as -13% and the Z score is reported as 1.93. For Cc1cccc(C[C@H](C)NC(=O)c2cc(=O)cc(C)n2C)n1, the “% Inhibition” value was -4% and the Z score was 0.81. For Cc1cc(CS(=O)(=O)NCCOc2ccc(C(C)(C)C)cc2)on1, the “% Inhibition” value was -7% and the Z score was 0.98. In the case of CC(C)(NC(=O)CCc1ccccc1)C(=O)O, the “% Inhibition” value is reported as -2% and the Z score is reported as 0.35. For Cc1cncc(-c2cc3c(cc2OC(C)(C)C(=O)O)OCC3)c1, the “% Inhibition” value was -11% and the Z score was 2.03. For CCOC(=O)c1cnn(-c2cccc(C)c2C)c1CN1CCC(C(N)=O)CC1, the “% Inhibition” value was -8% and the Z score was 1.03. In the case of COc1ccc(Cc2nc(C)n(CCO)n2)cc1OC, the “% Inhibition” value is reported as -2% and the Z score is reported as 0.37. CC(=Cc1ccccc1)CNCC(=O)N1Cc2ccccc2C1 was tested, and the “% Inhibition” value was -11% and the Z score was 1.23. NC(=NC1CC1)NCc1cccc(Cl)c1 was tested, and the “% Inhibition” value was -7% and the Z score was 0.99. In the case of C[C@H]1CN(C(=O)COCc2cc[nH]c(=O)c2)CCN1c1ccccc1, the “% Inhibition” value is reported as 6% and the Z score is reported as -1.19. For O=C(Nc1nnc(C2CC2)s1)c1cc(O)nc2ccccc12, the “% Inhibition” value was 1% and the Z score was -0.14. For COc1ccc(CCNC(=O)Cn2nnc(Cc3ccc(C)cc3)n2)cc1, the “% Inhibition” value was -2% and the Z score was 0.32. For CCn1nc(C)cc1C(=O)Nc1ccc(C)c(O[C@H]2CCOC2)c1, the “% Inhibition” value was -12% and the Z score was 1.09. For CC(C)(C)OC(=O)N1CCCC1C1CCCCN1S(=O)(=O)c1cccc(S(N)(=O)=O)c1 (centres undefined), the “% Inhibition” value was -9% and the Z score was 1.63. With CC1OCCC1C(=O)N1CCCN(C(=O)CCc2ccccc2)CC1 (centres undefined) the “% Inhibition” value was -19% and the Z score was 2. Cc1ccc(C(=O)N2CCC[C@H]2c2ccncc2)s1 was tested, and the “% Inhibition” value was -13% and the Z score was 1.95. In the case of O=C(Nc1ccc(N2CCCC2=O)cc1)[C@@H]1Cc2ccccc2O1, the “% Inhibition” value is reported as -9% and the Z score is reported as 1.2. CC1CC(NS(=O)(=O)CCC2CCCO2)CCO1 (centres undefined) was tested, and the “% Inhibition” value was -3% and the Z score was 0.38. Cc1cc(C)c2c(N)c(S(=O)(=O)c3ccc(C(C)(C)C)cc3)sc2n1 was tested, and the “% Inhibition” value was -13% and the Z score was 2.14. For c1cc2c(cc1Oc1nnnn1[C@H]1CO[C@H]3[C@@H]1OC[C@@H]3NCC1CCCCC1)OCO2, the “% Inhibition” value was 9% and the Z score was -1.07. For CC[C@@H](c1ccc(OC)cc1)N(CC)C(=O)CCN1CCCCC1=O, the “% Inhibition” value was -1% and the Z score was 0.11. COc1cccc(Oc2nc(N3CCC(C)CC3)nc3c2CN(C(=O)Nc2ccc(C)cc2)CC3)c1 was tested, and the “% Inhibition” value was 10% and the Z score was -1.41. COc1ccc(CN(C)Cc2nccs2)cn1 was tested, and the “% Inhibition” value was 2% and the Z score was -0.31. In the case of COCC1(NC(=O)c2nccnc2C(=O)N2CCCCC2)CCCC1, the “% Inhibition” value is reported as -5% and the Z score is reported as 0.95. In the case of C[C@@H](CN1CCCCCC1)NCc1ccc2nonc2c1, the “% Inhibition” value is reported as -15% and the Z score is reported as 1.43. Cc1nc(NC(=O)Cc2cccs2)sc1C was tested, and the “% Inhibition” value was -5% and the Z score was 0.71. For Cc1ccc(Cc2nsc(N3CCC(CNC(=O)Nc4ccc(Cl)c(Cl)c4)CC3)n2)cc1, the “% Inhibition” value was -5% and the Z score was 0.53. CN(C(=O)C1(O)CCC1)c1ccc(F)cc1 was tested, and the “% Inhibition” value was -8% and the Z score was 1.38. With CC(C)c1nccn1-c1nccc(N(C)C)n1 the “% Inhibition” value was 1% and the Z score was -0.09. In the case of CC(C)(C)c1nccc(Oc2ccc(-n3cncn3)cc2)n1, the “% Inhibition” value is reported as -2% and the Z score is reported as 0.21. With CCCc1nc(-c2cc3cc(C)ccc3nc2NCc2ccc(C)o2)no1 the “% Inhibition” value was -9% and the Z score was 1.85. c1ccn2cc(CN3CCCC[C@@H]3Cn3cncn3)nc2c1 was tested, and the “% Inhibition” value was 10% and the Z score was -1.3. For Cc1ccoc1C(=O)NC1CCN(C(=O)[C@H](C)N2CCOCC2)CC1, the “% Inhibition” value was 0% and the Z score was -0.05. In the case of O=C(c1ccc[nH]1)N1CCCN(C(=O)C2C3CCCCC32)CC1 (centres undefined), the “% Inhibition” value is reported as -8% and the Z score is reported as 0.78. For CCNC(=O)COc1ccc2c(c1)[C@H](c1ccc(C)cc1)N(C(=O)C1CCCC1)CC2, the “% Inhibition” value was -9% and the Z score was 0.98. Cc1ccc(C2=C[C@@H](c3c(F)cccc3Cl)n3nc(NC(=O)c4ccccc4)nc3N2)cc1 was tested, and the “% Inhibition” value was 18% and the Z score was -3.01. In the case of COc1cccc(C2C(c3ccccc3)CCN2C(=O)c2ocnc2C(F)F)c1 (centres undefined), the “% Inhibition” value is reported as -9% and the Z score is reported as 1.81.
